One block for each binder: values may come before it.
Columns and labels:
[1] = molecular target: T1, human TNFR1 on stably transfected mouse embryonic fibroblasts (MEF-TNFR1) (human, UniProt P19438 30-455); test: flow cytometry on MEF-TNFR1 cells
T1 construct: whole, on cells
T1 sequence (looked up): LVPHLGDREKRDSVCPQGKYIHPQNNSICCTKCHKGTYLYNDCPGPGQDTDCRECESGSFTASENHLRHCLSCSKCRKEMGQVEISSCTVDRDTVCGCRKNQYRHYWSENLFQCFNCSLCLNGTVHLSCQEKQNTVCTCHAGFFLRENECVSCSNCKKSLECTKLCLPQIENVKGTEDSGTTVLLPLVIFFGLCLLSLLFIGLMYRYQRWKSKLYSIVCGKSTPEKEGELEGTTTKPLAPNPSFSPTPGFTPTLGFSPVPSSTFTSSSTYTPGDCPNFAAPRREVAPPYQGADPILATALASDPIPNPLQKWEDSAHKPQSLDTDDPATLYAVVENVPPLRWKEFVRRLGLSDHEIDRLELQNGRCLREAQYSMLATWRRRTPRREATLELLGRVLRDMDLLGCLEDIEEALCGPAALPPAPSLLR
Experimental: FIG. 7: TNF-R2 selective binding of scTNFR2-Fc(Δab) complexes on MEF-TNF-R2. Mouse embryonic fibroblasts stably transfected with either human TNF-R2 (MEF-TNF-R2) or human TNF-R1 (MEF-TNF-R1) were tested for binding of the scTNFR2-Fc(Δab) complexes by flow cytometry. The scTNFR2-Fc(Δab) complexes bound selectively to MEF-TNF-R2, whereas binding to MEF-TNF-R1 could not be detected (n=1).
(§1) The binding of the scTNFR2-Fc(Δab) complexes to mouse embryonic fibroblasts (MEFs) stably transfected with human TNFR1 (MEF-TNFR1) or human TNFR2 (MEF-TNFR2) (Krippner-Heidenreich et al., 2002, J. Biol. Chem. 277, 44155-44163) was analyzed by flow cytometry. To this, cells were trypsinized and washed once in ice-cold FACS buffer (PBS, 2% FBS, 0.05% sodium azide). 200,000 cells per sample were incubated with serially diluted scTNFR2-Fc(Δab) complexes in 100 μl FACS buffer for 2 h at 4° C. Next, unbound proteins were removed by two washing steps with FACS buffer, followed by detection with Anti-Human IgG (γ-chain specific)-R-Phycoerythrin antibody (Sigma-Aldrich, 1:500) for 1 h at 4° C. After two final washing steps with FACS buffer, cells were analyzed with a MACSQuant® Analyzer 10 equipped with a 585/40 nm filter.

[2] = molecular target: T2, human TNFR2 on stably transfected cells (MEF-TNFR2, HeLa-TNF-R2) (human, UniProt P20333 23-461); test: flow cytometry on MEF-TNFR2 cells
T2 construct: whole, on cells; Same receptor on two transfected cell lines; the cell line is named under assay; also called human TNF receptor 2
T2 sequence (looked up): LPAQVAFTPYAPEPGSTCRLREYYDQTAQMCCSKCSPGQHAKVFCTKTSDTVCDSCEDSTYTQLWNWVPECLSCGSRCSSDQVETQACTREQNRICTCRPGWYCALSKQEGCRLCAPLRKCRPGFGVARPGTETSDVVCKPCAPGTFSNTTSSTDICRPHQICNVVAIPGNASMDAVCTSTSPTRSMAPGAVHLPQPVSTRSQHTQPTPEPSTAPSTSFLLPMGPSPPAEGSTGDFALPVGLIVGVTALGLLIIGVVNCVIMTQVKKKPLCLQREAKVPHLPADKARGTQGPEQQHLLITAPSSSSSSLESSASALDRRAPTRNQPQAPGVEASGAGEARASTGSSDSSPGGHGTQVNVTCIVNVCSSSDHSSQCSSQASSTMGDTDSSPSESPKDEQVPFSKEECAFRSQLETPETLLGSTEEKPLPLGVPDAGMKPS
Experimental: as §1

[3] = molecular target: T2, human TNFR2 on stably transfected cells …; test: flow cytometry on HeLa-TNF-R2 cells after 3 days at 37 °C in 50% human blood plasma, experiment 4
Experimental: (§2) FIG. 10: Stability of scTNFR2-Fc(Δab) complexes in human blood plasma. The integrity of the scTNFR2-Fc(Δab) complexes after incubation for 0 days (control), 3 days or 8 days in 50% human blood plasma at 37° C. was tested by their ability to bind HeLa-TNF-R2 cells in flow cytometry. The percentage of intact protein (mean±S. D., n=4) was calculated from reciprocals of the EC₅₀ values which were normalized to the non-incubated control (100%). Statistical analysis was performed by two-way ANOVA and Dunnett's post-test. Results were summarized as ****p <0.0001; ***p <0.001; **p <0.01; *p <0.05; n. s.=not significant.
(§3) The stability of the scTNFR2-Fc(Δab) proteins in human blood plasma after incubation periods of 3 and 8 days at 37° C. was assayed by binding of protein samples to HeLa cells stably overexpressing TNF-R2 (HeLa-TNF-R2, Richter et al., 2012, Mol. Cell Biol. 32, 2515-2529). […] After incubation, samples were stored at −80° C. and thawed prior testing the protein integrity by binding to HeLa-TNF-R2 in flow cytometry. […] Bound protein was detected with goat anti-human IgG Fcγ fragment specific-R-phycoerythrin antibody (Jackson ImmunoResearch, 1:500) for 1 h at 4° C. After two final washing steps with FACS buffer, cells were analyzed with a MACSQuant® VYB flow cytometer equipped with a 586/15 nm filter for detection of phycoerythrin.

[4] = molecular target: T2, human TNFR2 on stably transfected cells …; test: flow cytometry on HeLa-TNF-R2 cells after 8 days at 37 °C in 50% human blood plasma, experiment 4
Experimental: as §2, §3

[5] = molecular target: T2, human TNFR2 on stably transfected cells …; test: flow cytometry on HeLa-TNF-R2 cells after 0 days at 37 °C in 50% human blood plasma (control), experiment 2
Experimental: as §2, §3

binding result [1]: no binding | EC50 [2]: 0.062 nM | EC50 [3]: 0.0888 nM | EC50 [4]: 0.0869 nM | EC50 [5]: 0.0618 nM
B1: scTNFR2(139)-Fc(Δab) (744) (Fc fusion)
chain: [about 150 residues not given here]GGGGSDKPVAHVVANPQAEGQLQWLNRRANALLANGVELRDNQLVVPSEGLYLIYSQVLFKGQGCPSTHVLLTHTISRIAVSYQTKVNLLSAIKSPCQRETPEGAEAKPWYEPIYLGGVFQLEKGDRLSAEINRPDYLNFRESGQVYFGIIALGGGGSDKPVAHVVANPQAEGQLQWLNRRANALLANGVELRDNQLVVPSEGLYLIYSQVLFKGQGCPSTHVLLTHTISRIAVSYQTKVNLLSAIKSPCQRETPEGAEAKPWYEPIYLGGVFQLEKGDRLSAEINRPDYLNFRESGQVYFGIIALGGSGGGGSGGDKTHTCPPCPAPPVAGPSVFLFPPKPKDTLMISRTPEVTCVVVDVSHEDPEVKFNWYVDGVEVHNAKTKPREEQYNSTYRVVSVLTVLHQDWLNGKEYKCKVSNKGLPSSIEKTISKAKGQPREPQVYTLPPSRDELTKNQVSLTCLVKGFYPSDIAVEWESNGQPENNYKTTPPVLDSDGSFFLYSKLTVDKSRWQQGNVFSCSVMHEALHNHYTQKSLSLSPGK
notes: Hexavalent dimer through the Fc(Δab) region; no His tag

binding result [1]: no binding | EC50 [2]: 0.062 nM | EC50 [3]: 0.116 nM | EC50 [4]: 0.0938 nM | EC50 [5]: 0.0527 nM
B2: scTNFR2(118)-Fc(Δab) (745) (Fc fusion)
chain: [about 150 residues not given here]GGGGSSSRTPSDKPVAHVVANPQAEGQLQWLNRRANALLANGVELRDNQLVVPSEGLYLIYSQVLFKGQGCPSTHVLLTHTISRIAVSYQTKVNLLSAIKSPCQRETPEGAEAKPWYEPIYLGGVFQLEKGDRLSAEINRPDYLNFRESGQVYFGIIALGGGGSSSRTPSDKPVAHVVANPQAEGQLQWLNRRANALLANGVELRDNQLVVPSEGLYLIYSQVLFKGQGCPSTHVLLTHTISRIAVSYQTKVNLLSAIKSPCQRETPEGAEAKPWYEPIYLGGVFQLEKGDRLSAEINRPDYLNFRESGQVYFGIIALGGSGGGGSGGDKTHTCPPCPAPPVAGPSVFLFPPKPKDTLMISRTPEVTCVVVDVSHEDPEVKFNWYVDGVEVHNAKTKPREEQYNSTYRVVSVLTVLHQDWLNGKEYKCKVSNKGLPSSIEKTISKAKGQPREPQVYTLPPSRDELTKNQVSLTCLVKGFYPSDIAVEWESNGQPENNYKTTPPVLDSDGSFFLYSKLTVDKSRWQQGNVFSCSVMHEALHNHYTQKSLSLSPGK
notes: as for B1
